The other results are listed elsewhere or left out.
The sequences below were run on PfHDP1 homeodomain (GST-tagged) (assay: gcPBM binding intensity (ln(normalized median fluorescence intensity)); higher = stronger DNA binding).
In short: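 After 1 h on an Agilent 4 × 180k array of primer-extended double-stranded 36-bp intergenic genomic probes and negative controls, bound GST-tagged P. falciparum DNA-binding domains were detected with Alexa488 anti-GST antibody and scanned at 488 nm. The domains had been expressed in E. coli, and binding took place in 1× PBS with 1% milk, 0.2 mg/ml BSA, 0.5% salmon testes DNA and 0.03% Triton X-100. Binding intensity is the highest Masliner-normalised natural-log median intensity across replicate spots of either probe orientation.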

Compared with “TAAATACATAAATACACACACATATATTATATATAT [CACACA_site4310]”, “ATATTAACTATCATAACACACACAGTAGACATATTT [CACACA_site6941]” is lower in “gcPBM binding intensity (ln)” value: 7.09 for the first, 6.75 for the second.

Going from “TATCATATATAAAGAGGTACGTAAGAATAGAAAATT [XGTACX_site798]” to ATATATATTATATAAGTGCATAATATTCTTTCTTTT, the “gcPBM binding intensity (ln)” value rises from 7.27 to 8.58.

First: TTTTTCATTTCTGCATTTATTTATAAATAAATATTT [CACACA_negctrl_site368]
Second: TTCAAATATAAATACACACACATAGCTACAAAATAA [CACACA_site4172]
The “gcPBM binding intensity (ln)” value of the first is higher: 7.21 for the first, 7.14 for the second.

Compared with “TACACGCATGGACACACACACACACCCATATATATA [CACACA_site4522]”, “TATAAGAGAATATATACACACAAAAATATATACAGT [CACACA_site1668]” is lower in “gcPBM binding intensity (ln)” value: 7.11 for the first, 6.97 for the second.

First: TATATATTTTGTGTCTGTACACATATTATTAATTCC [XGTACX_site7507]
Second: TTTTTTTATCAATGTTGTACTTTTTTTTTTTTCCAT [XGTACX_site8864]
The “gcPBM binding intensity (ln)” value of the first is higher: 6.25 for the first, 6.18 for the second.

First: TACAATAAGGATAAGTGTACATATGTGCATACATAT [XGTACX_site7188]
Second: AAAAATTATAGAAAAGTGCAATACATGTTACACCAT
The “gcPBM binding intensity (ln)” value of the first is higher: 10.6 for the first, 8.42 for the second.

First: CATATAGCATAATCATGTACACATACAACAAATAGG [XGTACX_site1589]
Second: AATATATTTTTTGGTTGTACAGAGATCTTTGTAGAA [XGTACX_site1707]
The “gcPBM binding intensity (ln)” value of the first is higher: 6.86 for the first, 6.39 for the second.

Going from “ATTCTCCAAGTTTGATGTACACATATGACGACGGCG [XGTACX_site4912]” to “TATAATAATTATACATGTACACATTATTTGGATAAA [XGTACX_site5552]”, the “gcPBM binding intensity (ln)” value rises from 6.36 to 6.4.

Going from “TTTTTATATTTAATGTGTCCTCACTTAAAAGGATGA [XGTACX_site2744]” to “TATAATCAATATGTAACACACAAAAGTTATATACTT [CACACA_site7368]”, the “gcPBM binding intensity (ln)” value rises from 6.13 to 6.24.

Compared with “CTTTTTTGTTAAAGTGTGCGCAATAGTTATAGACTT [GTGCAC_site9670]”, “AAAATAAAATAAAAGTGTACGTTTTAAGAACATTGA [XGTACX_site2382]” is lower in “gcPBM binding intensity (ln)” value: 7.62 for the first, 6.27 for the second.

Going from “GTAAAAATAAAAACTGGTACACAAGTTGTTATAAAA [XGTACX_site502]” to “AACATGCTCAACTTTTTTTTTTTTTTTTTTTTTTTT [CACACA_negctrl_site1617]”, the “gcPBM binding intensity (ln)” value rises from 6.22 to 9.03.

Compared with “AATCTTAAAAATATATGTACTAAAAAAAAAAAAAAT [XGTACX_site6195]”, “ATATTTATTTATTTATGTACGCACACAGTTGATATT [XGTACX_site5808]” is higher in “gcPBM binding intensity (ln)” value: 6.55 for the first, 7.04 for the second.

First: CACTATATAAGAACCTGTACTCAATTTTGCAATATA [XGTACX_site7238]
Second: AAATTATATTCAAGTGCATGTAACTTATTATTATAT [TGCATGCA_site526]
The “gcPBM binding intensity (ln)” value of the first is higher: 8.53 for the first, 7.16 for the second.

Compared with “TAATAATAAAAATAAACACACATATATATGTATATA [CACACA_site2853]”, “TATATTTTCCTGCAAACACACATATAAATGTGTAGA [CACACA_site533]” is higher in “gcPBM binding intensity (ln)” value: 6.4 for the first, 6.77 for the second.

Going from “TTACGATTATACAAAAGTACATGTATTACACAATAT [XGTACX_site5138]” to “TATACCAGTTTTAAAAGTACTTGTGCATAAAAAATA [XGTACX_site4794]”, the “gcPBM binding intensity (ln)” value rises from 6.63 to 11.

Going from “AAACTTGTAAGAAACACACACACACCCATATATATA [CACACA_site797]” to “AAATTGGGGCTTGTTACACACTTAGTGGGAGTTCTA [CACACA_site4485]”, the “gcPBM binding intensity (ln)” value falls from 7.18 to 6.78.

First: ATGAATAAATTAAAAATGCACACTTTGATGGGTACA [CACACA_site2157]
Second: TATATATATATATATACACACTATATAATTCAAACA [CACACA_site4712]
The “gcPBM binding intensity (ln)” value of the first is lower: 8.98 for the first, 9.38 for the second.

Compared with “AAGTTACAAAATCAAAAGGAAAAAATATAAAATAAT [CACACA_negctrl_site561]”, “CAAGAAAATTGACACACACACATATTTATATTTATA [CACACA_site7766]” is higher in “gcPBM binding intensity (ln)” value: 6.29 for the first, 6.59 for the second.

First: AACATATATATATATACATGCATATGAACAACGAAT [TGCATGCA_site93]
Second: TGTATAAATATAATCACACATATATATATATATATA [CACACA_site4365]
The “gcPBM binding intensity (ln)” value of the first is lower: 7.2 for the first, 9.42 for the second.

Going from “TATAAAAATGTTTACACACACACATAAATATATTTT [CACACA_site2512]” to “TTTTTTTTTTTTCTGAGTACGAAAAATAGAGATAGA [XGTACX_site3825]”, the “gcPBM binding intensity (ln)” value falls from 6.69 to 6.45.

Going from “TATATTAAACCATGTAGTACCTTGAATAAATATTAT [XGTACX_site8254]” to “ATAAAAAGGAGACACACACACACACGCATATTTATA [CACACA_site6551]”, the “gcPBM binding intensity (ln)” value rises from 6.41 to 6.85.

First: TTTTTTTAATTAGTTTGTACATATTGTTATAATATA [XGTACX_site6294]
Second: CATGTTATGATTCCATGTACTTATAGCATTAAAAAA [XGTACX_site8939]
The “gcPBM binding intensity (ln)” value of the first is higher: 6.67 for the first, 6.59 for the second.

Going from “AAAAAAAAATACATATGTACTTATGTATAATGTTGT [XGTACX_site8104]” to “ATTATACCACCCGATATACACACTTGTAGACATCTT [CACACA_site7944]”, the “gcPBM binding intensity (ln)” value rises from 6.52 to 6.79.

Going from “TTAATTACATGTAATTGTACTTAATTATAAGACATT [XGTACX_site464]” to “TATTACTTATAAATTACACACAAATGATTGAACATT [CACACA_site2259]”, the “gcPBM binding intensity (ln)” value rises from 6.28 to 6.42.

First: TATACCTTTTTATTCACACATATATGTCATATGTCA [CACACA_site5423]
Second: TTAAAATAAAGAAAATGTACATAAATAAAAATAAAG [XGTACX_site2280]
The “gcPBM binding intensity (ln)” value of the first is higher: 7.25 for the first, 6.95 for the second.

Going from “TTTTACCTAAATATCACACATATTTAAATATATATA [CACACA_site5597]” to “ATCACATATATATATAATATATATATGTATATATTT [GTGCAC_negctrl_site249]”, the “gcPBM binding intensity (ln)” value falls from 6.48 to 6.41.

First: AAAAAAAATATATATGCACACACAAAAAAACAAATT [CACACA_site8349]
Second: ATATATATATATATATGTACATATATTTTTATTTAT [XGTACX_site3508]
The “gcPBM binding intensity (ln)” value of the first is lower: 9.18 for the first, 9.2 for the second.

Going from “CAACTAATATTAAAACGTACATAAATATTTAACAGA [XGTACX_site625]” to “TTACCAAAAAAATGTAGTACAATATAATATTATTTA [XGTACX_site5750]”, the “gcPBM binding intensity (ln)” value rises from 6.59 to 7.36.

In the case of AATATATATATTTAAGTGCATAATATTGTAATATTA, the “gcPBM binding intensity (ln)” value is reported as 9.76.
